Each structure is given as a SMILES string. The campaign covered roughly 52,000 compounds. About 1,700 (3.3%) were called active. Cut-off read from the data, not from the text of the source: active = survival mostly below about 52% (no sharp cut-off); inactive = mostly above about 56%. This is one part of the list.

The subject of this experiment is Wild type. The experiment is described as follows: growth inhibition of S. aureus wild type versus tarO mutant, primary screen, teichoic acid synthesis inhibitors, RN4220, OD600 (AID 463173). To be noted: S. aureus RN4220 wild type/DeltatarO growth, OD600, 18 h, active compounds read low, screened at 18.75 µg/mL (by protocol).
As to `Cc1cc(C)c2c(n1)nn1c(C)c(CCC(=O)Nc3cccc(C)c3C)c(C)nc21`, the survival was inactive: 86%. With `Cc1ccc(-c2nc3cccc(C)n3c2Nc2ccc3c(c2)OCCO3)cc1`, the survival was inactive: 75%.

As for `COc1ccc(N(C)C(=O)Cn2cnc3sc(C)c(S(=O)(=O)N4CCN(c5ncccn5)CC4)c3c2=O)cc1`, the survival was inactive: 74%. For the compound `O=C(NCCS(=O)(=O)N1CCN(c2cccc(Cl)c2)CC1)C(c1ccccc1)c1ccccc1`, the survival is inactive: 71%. As to `CCOCCCn1c(=N)c(C(=O)NC2CCCCC2)cc2c(=O)n3ccccc3nc21`, the survival is inactive: 74%.

Consider `CCc1nn(CC(=O)NCc2ccccc2)c(=O)c2cccn12`, for which the survival is inactive: 89%. As to `COC(=O)c1c(NC(=O)c2cc(=O)c3c(C)cc(C)cc3o2)sc2c1CCCC2`, the survival is inactive: 86%.

For `Cc1cccc(NC(=O)CN(c2ccc(C(C)C)cc2)S(=O)(=O)c2c(C)nn(C)c2C)c1C`, the survival is inactive: 75%. As to `CCOC(=O)C1CCN(S(=O)(=O)c2cc(-c3onc(C)c3C)ccc2C)CC1`, the survival is inactive: 81%.

With `Cc1ccc(-n2ncc3c(N4CCN(c5ccccc5)CC4)ncnc32)cc1C`, the survival was inactive: 69%. For the compound `COCCn1c(C)cc(O)c(C(c2ccccc2)N2CCC(C)CC2)c1=O` (stereo unspecified), the survival was inactive: 73%. On to `CC(=O)N1CCCc2cc(S(=O)(=O)N3CCC(C(=O)N(Cc4ccccc4)C(C)C)CC3)ccc21`, for which the survival is inactive: 81%. Regarding `CCOC(=O)N1CCN(C(=O)c2ccc3c(c2)N(Cc2ccccc2F)C(=O)c2ccccc2S3=O)CC1` (stereo unspecified), the survival is inactive: 85%.

Consider `O=C(c1c2c(nc3ccccc13)C(=O)N(C1CCCCC1)C2)N1CCN(c2ccc(F)cc2)CC1`, for which the survival was inactive: 81%.

Consider `CCc1ccccc1Nc1cc(C(=O)NCc2ccc(C)cc2)c2ccccc2n1`, for which the survival was inactive: 89%. With `COc1ccc(N2C(=O)CSC23C(=O)N(C)c2ccccc23)cc1Cl` (stereo unspecified), the survival is inactive: 85%. In the case of `Cc1ccc(S(=O)(=O)c2cn(Cc3cccc(F)c3)c3cc(N4CCCC4)c(F)cc3c2=O)cc1`, the survival is inactive: 84%. `CCOc1ccc(NC(=O)c2cc3sc(Cl)cc3n2CC)cc1`: the survival is inactive: 92%. Take `COc1ccc(C)cc1Nc1nc2c(S(=O)(=O)c3cccc(Cl)c3)nnn2c2ccsc12`: the survival was inactive: 88%. Regarding `CCOC(=O)c1c(S(=O)(=O)N2CCCC(C(=O)Nc3ccc(OCC)cc3)C2)c(C)n(C)c1C` (stereo unspecified), the survival was inactive: 71%. Consider `Cc1ccc(-c2cc(NC(=O)c3ccccc3Cl)on2)cc1`, for which the survival was inactive: 67%.

`CCCOc1ccccc1-c1nc(SCC(=O)c2ccccc2)n[nH]1`: the survival was inactive: 85%. The result for `CCN1CCN(CCCNC(=O)c2ccc3nc(Cc4ccc(OC)cc4)oc3c2)CC1` reads inactive: 95%; that for `CC(C)C(=O)Nc1ccc(Br)cc1`, inactive: 104%; that for `CCOc1cc(CNS(=O)(=O)c2ccc3c(c2)CC(=O)N3C)cc(OCC)c1OCC`, inactive: 120%. As to `O=C(Nc1ccc(C(=O)N2CCN(c3ccc(F)cc3)CC2)cc1)c1nsc2ccccc12`, the survival is inactive: 55%. For the compound `COc1ccc(Br)cc1C(=O)Nc1ccc2oc(-c3cccnc3)nc2c1`, the survival is inactive: 130%.

Regarding `CC(=O)Nc1ccc(S(=O)(=O)N2CCC(c3ccncc3)CC2)cc1`, the survival is active: -6%.

Consider `CCCCN(CCCC)c1ncnc2c1cnn2-c1cccc(C)c1`, for which the survival was inactive: 91%. On to `Cc1cc(C)n(C(C)CC(=O)NCc2ccccc2C)n1` (stereo unspecified), for which the survival is inactive: 127%. Take `Cc1ccc2c(CN3CCN(Cc4ccccc4Cl)CC3)cc(=O)oc2c1`: the survival is inactive: 79%. For the compound `COc1ccc(CCNC(=O)CCCn2c(=O)c3cccn3c3cccnc32)cc1OC`, the survival was inactive: 91%. The result for `COc1ccc(OCc2ccc(-c3nc(C#N)c(N4CCN(C)CC4)o3)o2)cc1` reads inactive: 74%; that for `CCC1CN(C(=O)NCc2cccc(OC)c2)c2cc(Cl)ccc2O1` (stereo unspecified), inactive: 78%. Take `Cc1ccccc1C(=O)c1cccn1CC(=O)NCc1ccc(Cl)cc1`: the survival was inactive: 98%. The result for `CC(C)(C)C(=O)N(CCc1ccccc1)Cc1nc2ccccc2c(=O)[nH]1` reads inactive: 107%; that for `COc1ccccc1CNC(=O)Cc1c(C)c2c(cc(C)c3c(C)c(C)oc32)oc1=O`, inactive: 87%; that for `CCCC(=O)N(C)c1nnc(-c2ccc(F)cc2)s1`, inactive: 107%. Consider `CCCCC1CCC(C(=O)N2CC(=O)Nc3ccc(F)cc3C2c2ccc(F)cc2)CC1` (stereo unspecified), for which the survival is inactive: 77%. With `Cc1cccc(N2CCN(C(c3nnnn3C3CCCC3)C(C)C)CC2)c1C` (stereo unspecified), the survival was inactive: 98%. As for `CCOC(=O)c1cc2c(=O)n3ccccc3nc2n(CC2CCCO2)c1=NC(=O)c1ccc(C(C)(C)C)cc1` (stereo unspecified), the survival is inactive: 90%. Take `Cc1nc2sc(C(=O)N(C)Cc3ccccc3)c(NC(=O)c3ccccc3)c2c(C)c1Cl`: the survival is inactive: 87%. As to `CCN(CC)c1nn2c(=O)c(C(=O)NCCc3ccc(C)cc3)cnc2s1`, the survival was inactive: 82%.

As to `COc1ccc(NC(=O)c2ccc(CN3C(=O)CCn4nc(C)cc43)cc2)c(OC)c1`, the survival is inactive: 73%. With `CCn1c2ccccc2c2nnc(N3CCN(c4ccc(F)cc4)CC3)nc21`, the survival is inactive: 83%.

In the case of `CCOC(=O)c1c(NC(=O)COc2cccc(C(F)(F)F)c2)sc2c1CCC(C)C2` (stereo unspecified), the survival was inactive: 74%. As for `COc1ccc(NC(=O)CSc2cn(CC(=O)N3CCCCC3)c3ccccc23)c(OC)c1`, the survival was inactive: 95%. As to `CCCC(=O)Nc1ccc2c(c1)nc(CN1CCN(C(=O)OCC)CC1)n2C(C)C`, the survival was inactive: 117%. As for `CCOc1ccc(CNC(=O)c2ccc(Sc3ccc(Cl)cc3)c(NC(C)=O)c2)cc1`, the survival is inactive: 115%. As for `Cc1cc(C)cc(Nc2ncnc3c2nc2n3CCCC2)c1`, the survival was inactive: 67%. Turning to `CC(C)CCNC(=O)CN1C(=O)CCn2nc(-c3cn(C)c4ccccc34)cc21`, the survival was inactive: 87%. The result for `CCOc1ccc(NC(=O)CSc2oc(-c3ccco3)nc2S(=O)(=O)c2ccc(C)cc2)cc1` reads inactive: 64%; that for `COc1ccc(C)c2sc(NC(=O)c3ccc(S(=O)(=O)N4CCCCC4)cc3)nc12`, inactive: 90%. For `CC(C)OC(=O)CSc1nc2cc3c(cc2cc1C#N)OCO3`, the survival is inactive: 103%. For the compound `COC(=O)c1ccc(C=Nc2ccc(O)c(-c3nc4ccccc4o3)c2)cc1`, the survival was inactive: 98%.

Take `COc1ccc(N2CC(NC(=O)COc3ccccc3F)CC2=O)cc1OC` (stereo unspecified): the survival was inactive: 65%.

For the origin of these results see PubChem BioAssay AID463173 (ICCB-Longwood Screening Facility, Harvard Medical School, 2010).
